Experimental data taken from the supplement of paper PMC10126150.
Sequences with one replicate were seen in a single cluster, so their values are uncertain.

Tested on: ATP
Assay: switch fluorescence ratio, 500 uM ATP over buffer (Cy3 cluster intensity, sum of 5 cycles each) (fold (ratio)); higher = stronger signal-on switching upon ATP binding; sequences stand for … in TCGTCGGCAGCGTCAGATGTGTATAAGAGACAGTTTTTTTTTTTTTTTTTTTTTTTTT…TC
Settings: aptamer strand: ATP DNA aptamer (quencher-CACCTGGGGGAGTATTGCGGAGGAAGG + anchor), 100 nM annealed; ATP concentration: 500 uM; one replicate
Procedure, shortened: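 Imaging in selection buffer was followed by imaging after 15 min with 500 uM ATP at 22 °C, for Cy3-labelled switching-strand clusters annealed to 100 nM quencher-labelled ATP aptamer on a modified Illumina MiSeq flow-cell. Five of these buffer/ATP cycles ran, separated by NaOH stripping and re-annealing. The fluorescence ratio per cluster is summed target-cycle over summed buffer-cycle Cy3 intensity, averaged per switch-domain sequence; clusters outside 100-1000 RFU were removed.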
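Note: ATP exposure 15 min at 22 °C before imaging.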

Sequence	switch fluorescence ratio
ATTATTTCCG	1.03
ATTCAAAAGT	1.05
ATTCAAAGGG	0.992
ATTCAAGCTG	1.03
ATTCACACTA	1.09
ATTCACCTAT	1.08
ATTCACCTCC	1.29
ATTCACTAGC	1.01
ATTCAGCGG	1.01
ATTCAGCTTT	0.964
ATTCAGGTCT	0.967
ATTCATATAG	0.964
ATTCATCCTC	1.05
ATTCATGGCC	0.967
ATTCCAAAGG	0.978
ATTCCTAATC	1.02
ATTCCTCCTT	1.48
ATTCGGAGA	1
ATTCGGATTC	1.01
ATTCGGTTAG	1.04
ATTCGTTTCG	0.996
ATTCTAAAAC	1.02
ATTCTAAGGT	0.991
ATTCTCATG	1.02
ATTCTCTCAG	0.975
ATTCTGCGGT	1.03

Sequence	switch fluorescence ratio
ATTGAACCAG	1.02
ATTGACGCAT	1.34
ATTGAGTTAC	1.02
ATTGATATAG	0.994
ATTGATATCT	1.03
ATTGATCTTA	1
ATTGATGGCT	1.02
ATTGATTGG	0.981
ATTGATTGTC	1.03
ATTGCAATAA	1.05
ATTGCAGTAG	1.06
ATTGCAGTTC	1.05
ATTGCCCAAG	0.96
ATTGCCCGCT	1.03
ATTGCGTCAC	0.989
ATTGCTCATT	1.01
ATTGCTTTAG	1.01
ATTGGAAGAT	0.991
ATTGGAGTTT	0.984
ATTGGCACGT	0.991
ATTGGCCCAG	0.992
ATTGGCCCGC	1.02
ATTGGCTGA	0.962
ATTGGCTTCT	1
ATTGGGATTT	0.977
ATTGGGCACA	1

Sequence	switch fluorescence ratio
ATTGGGTGAG	1.03
ATTGGGTGGC	1.02
ATTGGTAGAC	1
ATTGGTATAC	1.02
ATTGGTGCTC	0.964
ATTGGTGGA	1
ATTGGTTGAA	0.986
ATTGGTTTAG	0.997
ATTGTCCAAT	0.951
ATTGTGGATT	1.04
ATTGTGGCGT	0.972
ATTGTGTAGT	1
ATTGTGTT	0.981
ATTGTGTTCG	0.971
ATTGTTAATA	0.991
ATTGTTCCAA	0.965
ATTGTTCTCA	0.939
ATTGTTGTCG	1.01
ATTGTTTCGT	0.988
ATTTAATAGC	1.01
ATTTAATGGT	0.956
ATTTAATTT	1.03
ATTTACAACG	0.969
ATTTACCACA	1.08
ATTTACGCTG	1.09
ATTTACGTTT	1.01

Sequence	switch fluorescence ratio
ATTTACTATG	0.984
ATTTAGACGA	0.987
ATTTAGTGCT	0.974
ATTTATCTGG	0.975
ATTTATTTGA	0.996
ATTTCAAGGT	1
ATTTCACGGT	1.01
ATTTCAGCAT	1.11
ATTTCATGTT	0.984
ATTTCATTGG	0.939
ATTTCCCTAT	0.998
ATTTCCCTGC	1.05
ATTTCCTTAC	1.53
ATTTCGAGGG	1.01
ATTTCTCTGG	1
ATTTCTTTCC	1.18
ATTTGACAGC	0.981
ATTTGGCATA	1.01
ATTTGGGGCA	1.06
ATTTGTTGA	1
ATTTTACTCG	0.979
ATTTTAGGAA	0.982
ATTTTAGGT	0.96
ATTTTCGTAC	1.01
ATTTTCTTG	0.973
ATTTTGTC	1.05

Sequence	switch fluorescence ratio
ATTTTGTCCG	1.02
ATTTTTCGCA	0.966
CAAAAAAAGG	0.974
CAAAAAACTT	1.06
CAAAAACTGT	0.998
CAAAAGACAG	1.06
CAAAAGGGAC	1.04
CAAAAGTACG	1.05
CAAAATAGTC	1.07
CAAAATTTTG	0.991
CAAACCTCGC	1.07
CAAACGACGG	1
CAAAGAACGT	1.11
CAAAGCTAGT	1.03
CAAAGGATAT	0.99
CAAAGGATCC	0.966
CAAAGGGT	1.01
CAAAGTCGGT	0.966
CAAAGTGTAC	2.06
CAAAGTTTGT	0.976
CAAATGCTTG	1.02
CAAATTCACG	1.01
CAAATTGGCC	1.03
CAAATTGGG	1.01
CAAATTGTCT	0.98
CAACACGATA	1.2

Sequence	switch fluorescence ratio
CAACAGGTCA	0.963
CAACGAGTTC	0.956
CAACGCCTAA	1.16
CAACGCGACA	1.65
CAACGCTAC	3.11
CAACGTAAGA	1.28
CAACGTGGTA	1.01
CAACGTTCGA	1
CAACTAGCC	1.15
CAACTGTATG	1.08
CAACTGTCGC	1.03
CAACTTGGTA	0.981
CAAGACCTC	0.96
CAAGAGCCAC	1.04
CAAGATTTAG	0.991
CAAGCAACCA	1.12
CAAGCAATAA	2.55
CAAGCATATG	1.04
CAAGCATGCC	1.03
CAAGCCACTG	1.05
CAAGCGCTGA	1.02
CAAGCGGCAA	1.47
CAAGCGGTAT	1.04
CAAGCTGCAG	0.986
CAAGGAGAT	1.03
CAAGGATCCT	1.02

Sequence	switch fluorescence ratio
CAAGGCCCAC	1.06
CAAGGCTAAA	1
CAAGGTTCAA	1.02
CAAGGTTTGG	0.973
CAAGTATCGT	0.968
CAAGTATTCA	1.03
CAAGTCAGAA	1.03
CAAGTCAGGA	0.931
CAAGTCAGGG	1.03
CAAGTCATTC	1
CAAGTCTACT	0.962
CAAGTCTTT	0.978
CAAGTGACAA	0.973
CAAGTGCGG	1.01
CAAGTGTAGA	1.01
CAAGTTCGTA	0.979
CAATAAGGTG	1.42
CAATAATTGG	0.98
CAATACCCGC	1.33
CAATACGGAA	1.26
CAATAGAATC	1.02
CAATAGGATT	0.948
CAATATGTCT	1.01
CAATCAAACT	0.984
CAATCAGACT	0.976
CAATCAGGGT	1

Sequence	switch fluorescence ratio
CAATCCAGGC	1.03
CAATCGAGGA	1.01
CAATCGATTT	1.05
CAATCGGCTT	1.04
CAATCTAAAC	1.02
CAATCTCGAG	0.998
CAATGAAAGA	0.981
CAATGAGGGT	1.05
CAATGATGGC	0.985
CAATGATTGC	1.02
CAATGCATTG	0.981
CAATGGGATC	1.05
CAATGGTTGT	1.02
CAATGTAGTT	0.972
CAATGTCTA	1.01
CAATGTGTT	1.01
CAATGTTAAG	0.997
CAATTAATCT	1
CAATTACGGG	1.11
